This is one part of the list.
B1: PhoQ; a variant is named by its letters at X, in order, P23837 (parent)
chain: MKKLLRLFFPLSLRVRFLLATAAVVLVLSLAYGMVALIGYSVSFDKTTFRLLRGESNLFYTLAKWENNKLHVELPENIDKQSPTMTLIYDENGQLLWAQRDVPWLMKMIQPDWLKSNGFHEIEADVNDTSLLLSGDHSIQQQLQEVREDDDDAEMTHSVAVNVYPATSRMPKLTIVVVDTIPVELKSSYMVWSWFIYVLSANLLLVIPLLWVAAWWSLRPIEALAKEVRELEEHNRELLNPATTRELTSLVRNLNRLLKSERERYDKYRTTLTDLTHSLKTPLXXLQXXLRSLRSEKMSVSDAEPVMLEQISRISQQIGYYLHRASMRGGTLLSRELHPVAPLLDNLTSALNKVYQRKGVNISLDISPEISFVGEQNDFVEVMGNVLDNACKYCLEFVEISARQTDEHLYIVVEDDGPGIPLSKREVIFDRGQRVDTLRPGQGVGLAVAREITEQYEGKIVAGESMLGGARMEVIFGRQHSAPKDE

Variants of: B1
Assay: enrichment ratio after two sorts for PhoP signalling (ratio (wild type AVST 3.29)); higher = more functional
Settings: with PhoP (E. coli)

Row | Variant | enrichment ratio
1 | PMLH | ≤ 0.25
2 | TLIM | ≤ 0.25
3 | HKTC | ≤ 0.25
4 | TLHL | 0.57
5 | EISR | 0.602
6 | HECW | ≤ 0.25
7 | ERQV | ≤ 0.25
8 | KAVF | ≤ 0.25
9 | VDKS | ≤ 0.25
10 | MFFE | ≤ 0.25
11 | TYYF | ≤ 0.25
12 | TYPC | ≤ 0.25
13 | PCMG | ≤ 0.25
14 | SDIY | 0.384
15 | WFVL | ≤ 0.25
16 | VFSP | ≤ 0.25
17 | TVDF | 2.62
18 | QEHM | 10.7
19 | FHTS | ≤ 0.25
20 | MFVC | ≤ 0.25
21 | EQLS | ≤ 0.25
22 | NIWY | ≤ 0.25
23 | HYPL | ≤ 0.25
24 | RNHR | ≤ 0.25
25 | VTNT | ≤ 0.25
26 | DWPC | ≤ 0.25

Row | Variant | enrichment ratio
27 | TAQQ | 32.8
28 | PTPQ | ≤ 0.25
29 | KFWD | ≤ 0.25
30 | AMSQ | 10.7
31 | KSPP | ≤ 0.25
32 | WTGW | ≤ 0.25
33 | AVMH | 11.8
34 | HPCS | ≤ 0.25
35 | PSQA | ≤ 0.25
36 | WPQI | ≤ 0.25
37 | EHGI | ≤ 0.25
38 | RMFH | ≤ 0.25
39 | YWYL | ≤ 0.25
40 | YAYS | ≤ 0.25
41 | LERG | ≤ 0.25
42 | RMLR | ≤ 0.25
43 | WPNY | ≤ 0.25
44 | EDVP | ≤ 0.25
45 | LSGC | ≤ 0.25
46 | PTPH | ≤ 0.25
47 | LGIG | ≤ 0.25
48 | DTQA | ≤ 0.25
49 | YSTT | ≤ 0.25
50 | NPLT | ≤ 0.25
51 | WMWE | ≤ 0.25
52 | IFKM | ≤ 0.25

Row | Variant | enrichment ratio
53 | TKTP | ≤ 0.25
54 | TNDH | ≤ 0.25
55 | FMFH | ≤ 0.25
56 | TKAG | ≤ 0.25
57 | VQWG | ≤ 0.25
58 | KRAN | ≤ 0.25
59 | FHTM | ≤ 0.25
60 | EMPY | ≤ 0.25
61 | NYNF | ≤ 0.25
62 | TGHI | ≤ 0.25
63 | IKSE | ≤ 0.25
64 | FISC | ≤ 0.25
65 | YDTL | ≤ 0.25
66 | LPQW | ≤ 0.25
67 | QRQS | ≤ 0.25
68 | PRFD | ≤ 0.25
69 | QHWN | ≤ 0.25
70 | TPGF | ≤ 0.25
71 | KISI | ≤ 0.25
72 | VEDD | ≤ 0.25
73 | INVN | ≤ 0.25
74 | RNLL | ≤ 0.25
75 | WKDA | ≤ 0.25
76 | QLHC | 21.3
77 | YSCS | ≤ 0.25
78 | GYFW | ≤ 0.25

Row | Variant | enrichment ratio
79 | MSIM | 8.97
80 | DWNQ | ≤ 0.25
81 | SDEN | ≤ 0.25
82 | QTRI | ≤ 0.25
83 | RGMC | ≤ 0.25
84 | DIPY | ≤ 0.25
85 | APYC | ≤ 0.25
86 | IQRE | ≤ 0.25
87 | SFMW | ≤ 0.25
88 | STNL | 4.19
89 | NQYS | ≤ 0.25
90 | MFFM | ≤ 0.25
91 | ETHE | ≤ 0.25
92 | DPPQ | ≤ 0.25
93 | DDFC | ≤ 0.25
94 | AMHW | ≤ 0.25
95 | WRYT | ≤ 0.25
96 | PHQK | ≤ 0.25
97 | LWHG | ≤ 0.25
98 | YRQC | ≤ 0.25
99 | FITD | ≤ 0.25
100 | YYGR | ≤ 0.25
101 | GISV | 11.2
102 | ILTV | ≤ 0.25
103 | VTYP | ≤ 0.25
104 | NIQH | ≤ 0.25

Row | Variant | enrichment ratio
105 | FTKS | ≤ 0.25
106 | PVCC | ≤ 0.25
107 | DPRM | ≤ 0.25
108 | MLNR | ≤ 0.25
109 | DECH | ≤ 0.25
110 | GWRA | ≤ 0.25
111 | GFPC | ≤ 0.25
112 | PFVM | ≤ 0.25
113 | PMPD | ≤ 0.25
114 | IMDC | ≤ 0.25
115 | MDVW | ≤ 0.25
116 | EDFC | ≤ 0.25
117 | HNTG | ≤ 0.25
118 | IACR | ≤ 0.25
119 | LMGG | ≤ 0.25
120 | YHIC | ≤ 0.25
121 | NSSL | ≤ 0.25
122 | FGHA | ≤ 0.25
123 | KHYI | ≤ 0.25
124 | MGTW | ≤ 0.25
125 | FRRA | ≤ 0.25
126 | EIIL | ≤ 0.25
127 | QPSW | ≤ 0.25
128 | TFQY | ≤ 0.25
129 | NDRP | ≤ 0.25
130 | GITQ | 1.85

Row | Variant | enrichment ratio
131 | DNED | ≤ 0.25
132 | AYYY | ≤ 0.25
133 | RYNQ | ≤ 0.25
134 | TTYK | ≤ 0.25
135 | AQHG | ≤ 0.25
136 | QRCF | ≤ 0.25
137 | WDVC | ≤ 0.25
138 | MEMR | ≤ 0.25
139 | EFMI | ≤ 0.25
140 | HEYV | ≤ 0.25
141 | AKHH | ≤ 0.25
142 | RSVV | ≤ 0.25
143 | HSTS | ≤ 0.25
144 | QSNK | ≤ 0.25
145 | KIRN | ≤ 0.25
146 | RKET | ≤ 0.25
147 | LEGC | ≤ 0.25
148 | WQVL | ≤ 0.25
149 | QVSF | 4.24
150 | VFVL | ≤ 0.25
151 | RTVE | ≤ 0.25
152 | NMQT | ≤ 0.25
153 | SDYW | ≤ 0.25

From a collection of fitness landscapes (doi:10.1126/science.1257360)
